Assay results reported in PubChem BioAssay AID1508624 (National Center for Advancing Translational Sciences (NCATS), 2021).
Out of some 48,000 compounds screened, about 120 (0.25%) were called active. About 4% were inconclusive and are not listed. Calls follow the shape of the dose curve; as a rule, active = well fitted activation curve with a large enough effect; inconclusive = small, poorly fitted or top-dose-only effect, or another doubt; inactive = no such curve, though single readings can be large or run the other way. Some of the results follow.

test: Primary qHTS for Identification of Small Molecule Activators of Huntingtin-Antisense Promoter Activity; details: HEK293 HTT-AS promoter firefly luciferase reporter, 24 h; series mostly up to 57.5 µM; activity change, positive = activation: at the top concentration; also: nearly all actives have a fitted effect of over 55% in size
How it was run: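 HEK293 cells carrying firefly luciferase reporters were seeded at 2,500 per well in Opti-MEM and cultured for 24 h. They were then treated with compounds at up to 57.5 uM final for 24 h at 37 degrees C before Dual-Glo luminescence readout.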

Activity change, positive = activation, inactive:
COc1ccnc2[nH]cc(C(=O)C(=O)N3CCN(C(=O)c4ccccc4)C[C@@H]3C)c12 -17.6%
Cc1ccc(-n2c(=O)c3c(cnn3C)n(Cc3ccc(Cl)cc3)c2=O)cc1 -25.6%
CCOc1ccc(CNC(=O)c2ccc3[nH]c(C)c(C)c3c2)cc1OC -15.1%
CCOc1cc(C(=O)Nc2ccc(NC(=O)c3cc4ccccc4o3)c(OC)c2)cc(OCC)c1OCC -22.7%
Cc1nc2ccc(CN(C)c3ccc(C(=O)N[C@@H](CCC(=O)O)C(=O)O)s3)cc2c(=O)[nH]1 -7.53%
CCOc1ccc2nc(N3CCCC(C(=O)Nc4cc(C)ccc4C)C3)sc2c1 (centres undefined) 7.42%
Cc1ccc(NC(=O)Nc2c[nH]c(=O)[nH]c2=O)c(Cl)c1 -4.8%
CCc1ccccc1NC(=O)CSc1nnc(-c2ccc(OC)cc2)s1 -31.8%
CC(=O)Nc1ccc(NC(=O)C2CCN(S(=O)(=O)c3ccc4c(c3)CCCC(=O)N4)CC2)cc1 0.448%
Cc1ccc(NS(=O)(=O)c2cc(-c3cc(C)no3)ccc2C)c(Cl)c1 -30.6%
COc1ccc(NC(=O)CSC2=Nc3ccccc3N=C(c3ccc(F)cc3)C2)cc1OC -24.7%
CCN(C(=O)CCNC(=O)Cn1cnc2ccccc2c1=O)c1cc(OC)ccc1OC -3.27%
Cc1ccc2c(c1)c1c(c(=O)n(-c3ccccc3C)c(=O)n1CC(=O)c1ccc(Cl)cc1)n2C -8.59%
O=S(=O)(c1ccc(Cl)cc1)c1nnn2c1nc(NC1CCCCC1)c1sccc12 -24.2%
CCC1CN(C(=O)N2CCC(C(=O)NCc3cc(OC)c(OC)c(OC)c3)CC2)c2ccccc2O1 (centres undefined) -14.9%
CN(C)c1ccc(NC(=O)Cn2nnc3sc4c(c3c2=O)CCC(C(C)(C)C)C4)cc1 (centres undefined) -3.34%
CN(C)c1cccc(C(=O)Nc2nc3ccc(S(=O)(=O)N4CCCC4)cc3s2)c1 -14.3%
O=C(Nc1ccc(O)c(-c2nc3ccccc3o2)c1)c1ccc(Br)cc1 -12.9%
CCSc1ncc(Cl)c(C(=O)Nc2nc3ccc(Cl)cc3s2)n1 -7.29%
CN(C)c1ccc(CNC(=O)CN2C(=O)CSc3ccc(S(=O)(=O)N4CCCC4)cc32)cc1 -14.9%
Cn1c(SCC(=O)Nc2nc3ccccc3s2)ncc(C(=O)Nc2ccccc2)c1=O 16.8%
CCc1nc(-c2cc(S(=O)(=O)N3CCN(c4ccccc4)CC3)ccc2OC)no1 -10.4%
COc1cccc(CNC(=O)CN2C(=O)N(c3ccc(C)cc3C)S(=O)(=O)c3ccccc32)c1OC -34.3%
CCc1nn(CC(=O)NCCCN(CC)CC)c(=O)c2cc3occc3n12 -1.66%
Cc1ccc2onc(CNC(=O)NCc3ccc(Cl)cc3)c2c1 -16.5%
COc1ccc(C)cc1-n1cnc2cc(C(=O)NC3CCCCCC3)ccc21 -22.7%
O=C1COc2cc(S(=O)(=O)CCC(=O)NC3CCCCC3)c(Cl)cc2N1 -18%
O=C(CSc1nccn1-c1cccc(Cl)c1)Nc1cccc2ccccc12 -6.42%
CCOc1ccc(CCNC(=O)CCCc2nnc3n(CC)c(=O)c4sccc4n23)cc1 -12%
CCSc1ncc(Cl)c(C(=O)Nc2c(C(=O)Nc3ccccc3)oc3ccccc23)n1 -0.706%
COc1cccc(C(=O)Nc2cccc(-c3nc4ncccn4c3C)c2)c1 5.58%
O=C(O)c1c(-c2ccccc2)oc2ccc(OCc3c(F)cccc3Cl)cc12 -33.1%
CNC(=O)[C@H](Cc1ccccc1)NC(=O)[C@H](CC(C)C)[C@H](CSc1cccs1)C(=O)NO -4.86%
Cn1c(=O)c2c(-c3ccc(Br)cc3)n(Cc3ccc(F)cc3)cc2n(C)c1=O -29.7%
COc1ccc(-c2nc3cc(C)ccn3c2NC(=O)c2cccc(F)c2)cc1 5.04%
Cc1cc2c(cc3c(SCc4ccc(Cl)cc4)nncn32)o1 -4.79%
COc1ccc(C)cc1NC(=O)c1cnc2ccc(C)cn2c1=O 8.66%
O=c1c2ccccc2n(Cc2c(F)cccc2Cl)c(=O)n1CCc1ccccc1 -7.51%
COCCNC(=O)CCCn1c(SCC(=O)c2ccc(Br)cc2)nc2c(sc3ccccc32)c1=O -3.17%
Cc1ccn2c(=O)cc(COc3ccc(NC(=O)COc4ccc(C)c(C)c4)cc3)nc2c1 -5%
Cc1ccc(OCC(=O)NCC(c2ccc(Cl)cc2)N2CCOCC2)cc1C (centres undefined) -18.6%
CCOc1cc(C2c3c(oc4ccccc4c3=O)C(=O)N2Cc2ccc(OC)cc2)ccc1O (centres undefined) -4%
O=C(CCCCn1c(=O)c2ccccc2n(Cc2cccc(F)c2)c1=O)NCc1ccc2c(c1)OCO2 -35.6%
Cc1cccc(Nc2c(-c3ccsc3)nc3nc(C)cc(C)n23)c1 -5.45%
Cc1ccc(C(=O)c2oc3ccccc3c2NC(=O)Cc2coc3ccc(C)cc23)cc1 -6.26%
CCOC(=O)c1c(C)[nH]c(C)c1S(=O)(=O)N(C)CC(=O)NCc1ccc(Cl)cc1 0.587%
COc1ccc(-n2cnc3cc(C(=O)NC4CCCCCC4)ccc32)cc1 -22.6%
O=C(O)c1ccc2nc(-c3cc4cc(Cl)ccc4oc3=O)[nH]c2c1 2.83%
Cc1ccc(-c2nc3c4ccccc4n(CC(=O)NCc4ccc(F)cc4)c(=O)n3n2)cc1 27.1%
O=C(CSc1nc(-c2ccccc2F)nc2cc(=O)[nH]n12)Nc1cccc(C(F)(F)F)c1 -23.6%
CCOc1ccccc1-c1nc(Cn2c(=O)cc(C)c3c(C)nn(-c4ccccc4)c32)c(C)o1 -7.4%
COC(=O)c1sc(-c2ccccc2)cc1NC(=O)Nc1ccc(F)cc1 -13.4%
COc1ccc(C(CC(=O)NCc2ccc(Cl)cc2)N2Cc3ccccc3C2=O)cc1OC (centres undefined) -22.7%
Cc1ccc(OCC(=O)Nc2ccc(S(=O)(=O)Nc3cc(C)on3)cc2)c(Br)c1 -18%
COc1ccc(CCNC(=O)C2CCN(Cc3nc(-c4ccc(OC)c(OC)c4)oc3C)CC2)cc1OC -3.54%
O=C(NCCn1cc(SCc2ccc(Br)cc2)c2ccccc21)c1cccs1 -35.2%
CCC1Oc2ccccc2N(CC(=O)NCc2cc(OC)ccc2OC)C1=O (centres undefined) -5.24%
CCCC(=O)N1CCc2cc(OC)c(OC)cc2C1COc1ccc(C(=O)OC)cc1 (centres undefined) -26.5%
CCN(CC)C(=O)Cn1c(=O)n(CC2CCC(C(=O)NC)CC2)c(=O)c2sccc21 (centres undefined) -6.09%
CCOc1ccc(CCNc2nc3c(-c4ccc(C)cc4)nnn3c3ccccc23)cc1OCC 0.902%
Cc1ccc(-c2ccc(=O)n(CC(=O)Nc3ccc(F)c(Cl)c3)n2)cc1C -6.84%
COc1cccc(NC(=O)CSC2=Nc3ccccc3C3=NC(CCC(=O)NCc4ccco4)C(=O)N23)c1 (centres undefined) -13.1%
CCOc1ccccc1C(=O)Nc1ccc(S(=O)(=O)N2CCCCC2c2cccnc2)cc1 (centres undefined) -28.2%
COc1ccccc1C(=O)Nc1nnc(S(=O)(=O)N2CCCCCC2)s1 -20.7%
COc1ccc(-c2nc(CNS(=O)(=O)c3ccc(C)cc3)cs2)cc1 -34.7%
O=C(NCc1ccccc1Cl)c1ccc(NC(=O)N2CCCCc3ccccc32)cc1 -21.6%
CCOc1ccc(NC(=O)CSC2=Nc3ccccc3C3=NC(CC(=O)NCc4ccc5c(c4)OCO5)C(=O)N23)cc1 (centres undefined) -0.0447%
Cc1ccc(S(=O)(=O)c2c(Nc3cccc(Cl)c3)sc(C(=O)c3ccc4c(c3)OCO4)c2N)cc1 -11.7%
COc1ccc(-c2nc3ccccc3n2Cc2ccc(Cl)cc2)cc1 -15.7%
O=C(OCc1cc(=O)n2c3c(sc2n1)CCCC3)c1cccc(NC(=O)c2ccccc2F)c1 -31.3%
COc1cc(C)ccc1OCCSc1nnc(-c2ccc(C)cc2)o1 -9.63%
Cc1ccc(C(=O)c2oc3ccccc3c2NC(=O)Cc2coc3c(C)c(C)ccc23)cc1 -3.57%
Cc1cccc(NC(=O)CN(C)S(=O)(=O)c2ccc3c(c2)c(=O)n(C)c(=O)n3C)c1 -17%
O=C(NCCS(=O)(=O)N1CCN(c2ccccc2)CC1)C1CC(=O)N(c2ccccc2)C1 (centres undefined) 2.98%
CC1CCCCN1CC(=O)N1CCCc2c1c(=O)oc1ccc(OCc3ccccc3)cc21 (centres undefined) -33.8%
Cc1cc(Br)ccc1NC(=O)C1(S(=O)(=O)c2ccc(Cl)cc2)CC1 -14.2%
COc1ccc(OC)c(-c2noc(CSc3nnc(Cc4ccccc4)n3-c3cccc(C)c3)n2)c1 -21.8%
Cn1cc(S(=O)(=O)c2ccccc2)c(=O)c2cc(F)c(N3CCCCC3)cc21 -6.05%
Cc1noc2nc(C(=O)O)nc(N3CCCCC3)c12 -3.55%
COc1cccc(N2CC(NC(=O)COc3ccc4ccccc4c3)CC2=O)c1 (centres undefined) -3.27%
CCc1nnc(SCC(=O)Nc2cc(Cl)c(OC)cc2OC)c2cc3oc(C)cc3n12 -4.92%
CC(=O)c1ccc(NC(=O)CCn2nc(C)c(S(=O)(=O)N3CCC(C)CC3)c2C)cc1 -19.1%
CC1CCC(NC(=O)Cn2ncc3c4ccccc4n(Cc4ccc(Cl)cc4)c3c2=O)CC1 (centres undefined) -8.98%
CCCCN(CC)C(=O)Nc1ccc2c(c1)N(C)C(=O)c1ccccc1S2 -27.3%
COC(=O)c1c(C)sc(-c2c(-c3cccc(OC)c3)[nH]c3c2c(=O)[nH]c(=O)n3C)c1O -9.48%
CC(=O)Nc1ccc(S(=O)(=O)NC2(C(F)(F)F)NC(=O)N(c3ccc(Cl)cc3)C2=O)cc1 (centres undefined) -5.15% [at 11.5 µM, percent change from vehicle, -100% = no light]
COc1ccc(C(=O)N2CCc3cc(OC)c(OC)cc3C2COc2ccccc2OC)cc1 (centres undefined) -16.6%
COc1ccc(C)c2sc(N(Cc3cccnc3)C(=O)CCc3ccccc3)nc12 -24.4%
CCCn1c(=O)c2sccc2n2c(CCCC(=O)Nc3ccc(C)c(F)c3)nnc12 -7.4%
O=C(Nc1ccc(Cl)c(Cl)c1)C1CC1 -5.45%
Cc1ccc(C(=O)COC(=O)c2cc(-c3ccc(Cl)cc3)nc3ccccc23)cc1 -11.2%
COc1ccc(-c2noc(CN3CCN(c4ccccc4OC)CC3)n2)cc1OC -23.9%
COc1ccc(CNc2ncnc3c2nnn3C)cc1 3.3%
COc1ccc(CN2C(=O)C(NC(=O)c3ccccc3C)(C(F)(F)F)N=C2c2ccccc2)cc1 (centres undefined) -27.7%
